Measured values reported in the supplement of paper PMC11417369.
± gives the standard deviation of the averaged measurements. Some of the results follow.

test system: PfAP2-LT AP2 domain (GST-tagged); experiment: gcPBM binding intensity (ln(normalized median fluorescence intensity)); higher = stronger DNA binding
How it was run: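 Binding intensity is defined as the maximum Masliner-normalised natural-log median intensity across replicate spots for either probe orientation. It was measured on an Agilent 4 × 180k array of primer-extended double-stranded 36-bp intergenic genomic probes and negative controls, to which GST-tagged P. falciparum DNA-binding domains made in E. coli were applied for 1 h in 1× PBS with 1% milk, 0.2 mg/ml BSA, 0.5% salmon testes DNA and 0.03% Triton X-100. Detection was by Alexa488 anti-GST antibody and scanning at 488 nm.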

Sequence	gcPBM binding intensity (ln)
ATATATATACCAAGTAGTACATTCTACAACTAATGT [XGTACX_site8653]	8.79 ± 0.4
ATGTATATATATATATGTACTAATTAGTAGTTTACG [XGTACX_site6272]	9.07 ± 0.45
TGTATGTATAAAAACGCATGTATGTATTTTACAATA [TGCATGCA_site767]	8.73 ± 0.43
TACTAAGAATTAATATAACAAAATAAAAAAAAAAAA [XGTACX_negctrl_site346]	8.4 ± 0.45
ATACAGATATATAATACACACATAAATGTAACATTT [CACACA_site5864]	9.23 ± 0.4
TATATAAATATATATGTACACACATATACATGTTGA [CACACA_site9022]	8.97 ± 0.38
ATAATATCTTTATGTGTGCACATATATATATATATA	9.82 ± 0.099
TTGTTTATTTTTTATTACTATAAAGATGTTATATAT [CACACA_negctrl_site1506]	8.65 ± 0.47
TAAATAATTTATAAGTGTACTATTATTGCACGAATA [XGTACX_site7715]	8.54 ± 0.46
AAAAAAAACAGACACACACACATAAATATATATAAA [CACACA_site148]	9.74 ± 0.36
CATTAGGTCTTTTGTACATGCAAGTGTGTGCGTAAA [TGCATGCA_site255]	9.3 ± 0.47
ATGATTTTTTCTGTATGTACATAAAAATAAAATTCT [XGTACX_site5698]	8.47 ± 0.39
TTTTTTTTTTTTTTTGCACACTTGATTTGAGCTTAT [CACACA_site4042]	8.78 ± 0.54
TTTTTTTTTGTTTACACACCCAAATCACATACATAT [CACACA_site4052]	9.11 ± 0.49
AAAATAAAAATACACATTTTTTTTTTTTTTTTTTTT [TGCATGCA_negctrl_site515]	8.83 ± 0.18
GAAAATAGCTAAAATACACACAATTAAAAGTTATTA [CACACA_site7614]	8.99 ± 0.58
TTACAAAAATGTGGTTGTACACAAACAAAAAAAATA [XGTACX_site8506]	8.88 ± 0.57
TATAAATAGATATATACACACATGAAAATAAATAAA [CACACA_site7228]	9.05 ± 0.42
AAATATAATATATGCACACATACATACATATATATA [CACACA_site104]	9.04 ± 0.32

Sequence	gcPBM binding intensity (ln)
TTTTCCTTTTTGGAATGTACACATATATATTAAATG [XGTACX_site4700]	8.58 ± 0.33
TAATTAAATATTTTCCTACAATTAATAAGAAAAGGA [XGTACX_negctrl_site565]	8.26 ± 0.44
AAGAATAATAACAAATGTACTTATATAAAGTATTAT [XGTACX_site2336]	8.73 ± 0.56
CAGCTCTTAAAAATTACACACATATACGCATATATA [CACACA_site3267]	9.03 ± 0.3
TATTAAGAAGAAAATTCACACATTTGTACCTCTCTT [CACACA_site4822]	8.86 ± 0.47
TTCTTTAAAATAAATTGTACTAACATATATATATAT [XGTACX_site6045]	8.62 ± 0.42
AACTATATATAACTAGTGCAAAGACAATATTTTAAA	8.74 ± 0.45
TATAATATAATATATGCACACAAATATGTATATATG [CACACA_site8664]	9.02 ± 0.3
AAAATTTAATATAATGCACACATAAAAAAAAAAAAT [CACACA_site8425]	9.06 ± 0.5
TTTGATATAGAAAGAGCATGCAAGTTAGATAAAATA [TGCATGCA_site470]	8.93 ± 0.42
TATATATTAATATACACACACACATATATATATATA [CACACA_site1608]	9.79 ± 0.29
AATAAATTATTATGTACACACATAATAGTATATATA [CACACA_site1820]	8.9 ± 0.47
AAAACATACCTATATACACACATATAAATATAAATA [CACACA_site6956]	9.18 ± 0.47
TCATGTTTTACAAAAACACACAAATGAATATAAACA [CACACA_site4775]	8.74 ± 0.46
TATATACATAGACACCCACACACAAAAAAAAAAAAA [CACACA_site8186]	9.43 ± 0.42
TCGAATTTGGAAAGAAGTACATGAAGCCAACATATG [XGTACX_site5222]	8.73 ± 0.38
AATAAATAAAAATTATGTACATATATAAAAAATACA [XGTACX_site8581]	8.79 ± 0.36
AAAACAAAATAGGGAACACACACATGTCAATATATA [CACACA_site8834]	9.46 ± 0.37
TTTCAAACTGTTCTCACACACGAAATTAGAAATGAA [CACACA_site4509]	8.87 ± 0.38

Sequence	gcPBM binding intensity (ln)
TTTTTTTTTTTTTGGTTCACACTGAAAAGAGAGATA [GTGCAC_negctrl_site439]	8.29 ± 0.25
CAATCATGGTTTTACACACACATGCATGTGAAAATT [CACACA_site4870]	9.29 ± 0.23
TTTTGTTATTTTGAAGTGCACTTTCCACTTAATATA	8.91 ± 0.44
ATACCTATTTGATGAGTGCATTATCCAATATATGTA	8.77 ± 0.39
TTTATTATATATAAAAGTACACATTGTAAGGAAACA [XGTACX_site8560]	8.77 ± 0.36
AAATATATATGTATATGTACTTATTTATTTAAAAGG [XGTACX_site4093]	8.48 ± 0.39
TTTTCTGTATAAACTTGTACATATATTTCCTTGTTT [XGTACX_site5745]	8.81 ± 0.47
AAAAGTGATGAGACAAGTACTAACATATTATTATTA [XGTACX_site1533]	8.89 ± 0.47
ATGTTTTACAAAAACACACAAATGAATATAAACATA [CACACA_site6667]	8.82 ± 0.37
AAATAAAATATCAATTAAAACAGAATTGAATTTTTA [CACACA_negctrl_site181]	8.44 ± 0.47
ATATGTTCTACAAAAAAGATGTCGATTTATTTTCTT [CACACA_negctrl_site1179]	8.56 ± 0.49
ACACATATGCATATATGTACATAATATATTAAACTT [XGTACX_site5975]	9.23 ± 0.33
TAAAAAATAAATATATGTACGCAATAAATGTGTTAA [XGTACX_site4043]	8.71 ± 0.45
ATTTAAGATTTAATCACACACATATATATTATATAC [CACACA_site2907]	9.05 ± 0.36
ATAATATATGTATATCCACACACATATATATATATA [CACACA_site8471]	9.81 ± 0.042
GCAAATGTGAAAACGTGTACACATTTTATTTAATTT [XGTACX_site8000]	8.9 ± 0.45
TATTTGTAAATCGATACACACATATATATTAATATA [CACACA_site196]	8.98 ± 0.23
AAATGTAGATATTATCGTACACATATATTTATATAT [XGTACX_site6326]	8.85 ± 0.35
AAAAAAAAAAAAAAATGTACAAATAGTAGTTACAGA [XGTACX_site2531]	8.79 ± 0.48
